The campaign covered roughly 310,000 compounds. About 14,000 (4.5%) showed an effect of 50% or more. The effect is printed as a negative number. Some of the results follow.
Each compound was assayed against human ether-à-go-go-related gene (hERG) potassium channel (human, UniProt Q12809) (assay: primary screen, population patch clamp on CHO cells stably expressing hERG).
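Also: peak tail current of the secondary pulse compared with the same well before compound.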

Chain of human ether-à-go-go-related gene (hERG) potassium channel (Q12809 whole entry, looked up): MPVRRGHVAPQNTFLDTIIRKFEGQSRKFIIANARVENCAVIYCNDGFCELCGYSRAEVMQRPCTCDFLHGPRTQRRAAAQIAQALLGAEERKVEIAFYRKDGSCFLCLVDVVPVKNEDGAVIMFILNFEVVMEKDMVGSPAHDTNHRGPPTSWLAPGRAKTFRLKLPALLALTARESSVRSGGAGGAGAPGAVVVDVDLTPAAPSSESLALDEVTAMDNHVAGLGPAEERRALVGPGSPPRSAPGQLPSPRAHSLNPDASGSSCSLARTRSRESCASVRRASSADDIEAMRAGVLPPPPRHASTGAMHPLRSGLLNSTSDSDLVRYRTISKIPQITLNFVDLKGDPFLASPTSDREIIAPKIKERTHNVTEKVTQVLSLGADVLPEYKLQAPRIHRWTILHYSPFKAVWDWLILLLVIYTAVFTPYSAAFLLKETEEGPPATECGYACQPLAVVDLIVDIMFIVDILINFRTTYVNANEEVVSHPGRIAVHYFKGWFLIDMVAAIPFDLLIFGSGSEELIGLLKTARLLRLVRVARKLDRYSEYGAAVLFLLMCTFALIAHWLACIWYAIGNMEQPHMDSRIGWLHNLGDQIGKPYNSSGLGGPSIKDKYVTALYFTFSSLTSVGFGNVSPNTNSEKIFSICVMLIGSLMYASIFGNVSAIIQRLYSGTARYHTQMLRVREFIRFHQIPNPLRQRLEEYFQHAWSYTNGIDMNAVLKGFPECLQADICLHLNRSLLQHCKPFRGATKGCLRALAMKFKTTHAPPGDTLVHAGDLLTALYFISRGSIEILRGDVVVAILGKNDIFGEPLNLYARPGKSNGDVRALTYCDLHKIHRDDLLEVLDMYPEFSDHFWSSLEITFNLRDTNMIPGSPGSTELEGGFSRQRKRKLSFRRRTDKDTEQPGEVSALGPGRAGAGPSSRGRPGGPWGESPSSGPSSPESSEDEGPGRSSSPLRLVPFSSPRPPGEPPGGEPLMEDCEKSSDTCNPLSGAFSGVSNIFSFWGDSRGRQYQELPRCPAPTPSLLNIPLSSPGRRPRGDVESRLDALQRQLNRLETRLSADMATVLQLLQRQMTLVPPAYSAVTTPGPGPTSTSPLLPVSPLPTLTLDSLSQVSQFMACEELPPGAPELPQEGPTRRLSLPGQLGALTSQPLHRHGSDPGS

First: Cc1[nH]c2ccccc2c1CCNCc1cccnc1.Cl
Second: c1cncc(CN=C2Nc3ccccc3CS2)c1
The “hERG current change (%, negative = inhibition) at 10uM” value of the first is higher: 7.81% for the first, -4.61% for the second.

Going from `O=C(O)c1cc([N+](=O)[O-])ccc1C(=O)Nc1cccc([N+](=O)[O-])c1` to `Cc1cccc(C(=O)c2ccccc2C(=O)O)c1`, the “hERG current change (%, negative = inhibition) at 10uM” value rises from 8.76% to 18%.

Going from `CCc1nc2ccccc2c(=O)n1-c1ccccc1OC` to `Cn1c(COc2ccc(Cl)cc2)nc2ccccc2c1=O`, the “hERG current change (%, negative = inhibition) at 10uM” value falls from 2.58% to -30.1%.

Going from `CC(C)(C)NC(=O)COc1ccc(CNc2ncn[nH]2)cc1` to `CNC(=S)NCCc1ccc(OC)cc1`, the “hERG current change (%, negative = inhibition) at 10uM” value rises from 7.04% to 17%.

First: Cc1ccc(C2(C)NC(=O)N(CC(=O)Nc3cccnc3Cl)C2=O)cc1 (stereo not shown)
Second: Cc1ccc(/C=N/NC(=O)CSc2nc3ccccc3o2)cc1
The “hERG current change (%, negative = inhibition) at 10uM” value of the first is higher: 23.8% for the first, 3.66% for the second.

Going from `COCc1cc(CN2CCCC(C(=O)Nc3ccc(-c4ccco4)cc3)C2)ccc1OC` (stereo not shown) to `COc1ccc(CN2CCCC(C(=O)Nc3cccc(-n4cccn4)c3)C2)c(F)c1` (stereo not shown), the “hERG current change (%, negative = inhibition) at 10uM” value falls from -7.12% to -30.3%.

Going from `COc1ccc(OC)c(Nc2ncnc3ccc(Br)cc23)c1` to `COc1ccc(Cl)cc1NC(=O)CC(=O)Nc1cc(Cl)ccc1OC`, the “hERG current change (%, negative = inhibition) at 10uM” value rises from 13% to 20.3%.

First: C#CCOCCOCCOCCNc1nc(N2CCN(C(=O)[C@H]([C@@H](C)O)n3cc(CCCC[NH3+])nn3)CC2)nc(N2CCN(C(=O)[C@H]([C@@H](C)CC)n3cc(CCCC[NH3+])nn3)CC2)n1.[Cl-]
Second: CCOCCOc1nc2c(c(=O)n(C)c(=O)n2C)n1CCc1ccccc1
The “hERG current change (%, negative = inhibition) at 10uM” value of the first is higher: 29.7% for the first, 0.435% for the second.

First: COc1ccc(OCCN2C(=O)NC3(CCc4ccccc4C3)C2=O)cc1 (stereo not shown)
Second: Cc1ccc(OCC(=O)N2CCC3(CC2)CC(=O)c2ccccc2O3)cc1
The “hERG current change (%, negative = inhibition) at 10uM” value of the first is higher: -49.7% for the first, -73.3% for the second.

First: COC(=O)c1sccc1-c1ccc(/C=N/OCc2c(Cl)cccc2Cl)o1
Second: CCOC(=O)c1oc2cc(O)cc(O)c2c(=O)c1OCc1ccccc1
The “hERG current change (%, negative = inhibition) at 10uM” value of the first is lower: -1.86% for the first, 15.2% for the second.

Compared with `COc1ccccc1NC(=S)N1CCOCC1`, `COc1ccc(C(=O)N2CCOCC2)cc1S(=O)(=O)N1CCCc2ccccc21` is lower in “hERG current change (%, negative = inhibition) at 10uM” value: 19.5% for the first, -31.4% for the second.

First: CCCNC(=O)CC(NS(=O)(=O)c1ccc(Cl)cc1)c1ccco1 (stereo not shown)
Second: CCOCCCNC(=O)C(Cc1ccccc1)NS(=O)(=O)c1cccc2nsnc12 (stereo not shown)
The “hERG current change (%, negative = inhibition) at 10uM” value of the first is lower: -10.1% for the first, 7.58% for the second.

First: CC1(C)c2[nH]c3ccccc3c2C[C@@H]2C(=O)N(Cc3ccco3)C(=O)N21
Second: COCCCN1CC(=O)N2C(c3ccc(C)cc3)c3[nH]c4ccccc4c3C[C@H]2C1=O (stereo partly shown)
The “hERG current change (%, negative = inhibition) at 10uM” value of the first is higher: 4.71% for the first, -45.5% for the second.

Going from `COc1ccccc1N1C(=O)c2ccccc2NC1c1ccc(O)cc1` (stereo not shown) to `COC(=O)c1ccc(CN2C(=O)C(C)N(C(=O)c3c(F)cccc3F)c3ccccc32)cc1` (stereo not shown), the “hERG current change (%, negative = inhibition) at 10uM” value falls from 11.3% to 10.1%.

First: COc1ccc(-c2[nH]ncc2CN(CCO)CC23CC4CC(CC(C4)C2)C3)c(OC)c1
Second: COc1ccc(S(=O)(=O)N2CCC(C(=O)Oc3ccc(C)cc3)CC2)cc1OC
The “hERG current change (%, negative = inhibition) at 10uM” value of the first is lower: -0.414% for the first, 10.6% for the second.

`O=C(CSc1cccc[n+]1[O-])NN(c1ccccc1)c1ccccc1` and `O=C(/C=C\c1ccccc1[N+](=O)[O-])Nc1ccccc1` are the same in “hERG current change (%, negative = inhibition) at 10uM” value: 12.4% for the first, 12.4% for the second.

Compared with `COc1ccc(N2C(=O)/C(=C/N(C)C)NC2=S)cc1`, `COc1ccc(-n2c(=O)c(NC(=O)c3ccccc3)c3n(c2=S)CCCCC3)cc1` is lower in “hERG current change (%, negative = inhibition) at 10uM” value: 14.9% for the first, -3.03% for the second.

Going from `Cl.OC(CC#CCN1CCOCC1)(c1ccccc1)c1ccccc1` to `CC(CCc1ccccc1)NC(=O)CN1CCN(c2ccccc2)CC1` (stereo not shown), the “hERG current change (%, negative = inhibition) at 10uM” value falls from 5.69% to -55.8%.

Going from `O=C(CSc1ncn[nH]1)Nc1c(Br)cc([N+](=O)[O-])cc1Br` to `Cc1nn(CCCC(=O)Nc2c(F)cc(F)cc2Br)c(C)c1[N+](=O)[O-]`, the “hERG current change (%, negative = inhibition) at 10uM” value falls from 6.61% to -21.6%.

Compared with `CCOC(=O)C1CCCN(c2nc3c(C)cccn3c(=O)c2/C=C(\C#N)C(=O)NCc2ccco2)C1` (stereo not shown), `N#CCSc1nc2ccccc2c(=O)n1CCCC(=O)NCC1CCCO1` (stereo not shown) is higher in “hERG current change (%, negative = inhibition) at 10uM” value: -49.7% for the first, -12.4% for the second.

Going from `CC(C)(C)OC(=O)N1CCC[C@H]1C(=O)Nc1ccc(Br)cc1` to `CC(=O)NC(C)C(=O)OCC(=O)Nc1ccc(Br)cc1` (stereo not shown), the “hERG current change (%, negative = inhibition) at 10uM” value falls from 13.5% to 1.95%.

Compared with `CC(C)=C1C2CCC1C1C(=O)N(CCc3ccccc3)C(=O)C21` (stereo not shown), `CC1(C)Cc2c(sc3nnn(Cc4ccccc4)c(=O)c23)CO1` is lower in “hERG current change (%, negative = inhibition) at 10uM” value: -8.65% for the first, -16.5% for the second.

First: CC(C)C(=O)NC(NC(=S)Nc1cccc2cccnc12)C(Cl)(Cl)Cl (stereo not shown)
Second: S=C(NCc1ccccn1)Nc1ccc(Cl)c(Cl)c1
The “hERG current change (%, negative = inhibition) at 10uM” value of the first is higher: 19.7% for the first, 3.45% for the second.

First: Cc1ccc(S(=O)(=O)N2CCN(C)CC2c2ccccc2)cc1.Cl (stereo not shown)
Second: COc1ccccc1CN1CCN(S(=O)(=O)c2ccc(C)cc2)CC1
The “hERG current change (%, negative = inhibition) at 10uM” value of the first is higher: -8.35% for the first, -19% for the second.

First: CC(=O)Nc1ccc(NC(=O)CCC(=O)OCC(=O)c2ccc(F)cc2)cc1
Second: O=C(COc1ccccc1)Nc1c2c(nn1-c1ccc(F)cc1)CS(=O)(=O)C2
The “hERG current change (%, negative = inhibition) at 10uM” value of the first is higher: 16.6% for the first, -0.258% for the second.

First: O=c1c2cc(O)c(O)cc2oc2cc(O)c(C3OC(CO)C(O)C(O)C3O)c(O)c12 (stereo not shown)
Second: CCO[C@@H]1OC(C(=O)Nc2ccccc2)=C[C@H](c2coc3ccccc3c2=O)[C@H]1CCCO
The “hERG current change (%, negative = inhibition) at 10uM” value of the first is higher: 17.9% for the first, -50.9% for the second.

Compared with `O=C(CNC(=O)c1ccc(OC(F)F)cc1)NCc1ccccn1`, `CCOc1ccc(N(CC(=O)O)S(=O)(=O)c2cccnc2)cc1` is higher in “hERG current change (%, negative = inhibition) at 10uM” value: -70.9% for the first, 7.01% for the second.

First: O=C(Cc1c[nH]c2ccccc12)NCc1cccs1
Second: CCn1c2ccccc2c2cc(NC(C)=O)ccc21
The “hERG current change (%, negative = inhibition) at 10uM” value of the first is lower: -2.55% for the first, 7.2% for the second.

First: C=CCOc1ccc2c(OC)c3ccoc3nc2c1OC
Second: COc1ccc(NC2CCCN(C(=O)c3ccc4nc(C)c(C)nc4c3)C2)cc1OC (stereo not shown)
The “hERG current change (%, negative = inhibition) at 10uM” value of the first is lower: 2.88% for the first, 14% for the second.

First: O=C(COC(=O)CNC(=O)c1ccc(Cl)cc1Cl)NC1CCCCCCC1
Second: Cc1ccccc1N(C(=O)CNC(=O)c1ccco1)C(C(=O)NC1CCCCC1)c1cccnc1 (stereo not shown)
The “hERG current change (%, negative = inhibition) at 10uM” value of the first is higher: 15.8% for the first, 14.3% for the second.

Compared with `CN(Cc1c(F)cccc1Cl)c1ccc(S(=O)(=O)N2CCOCC2)cn1`, `O=C(N=C1N=C2C=CC=CN2Cc2ccccc21)c1ccc(S(=O)(=O)N2CCOCC2)cc1` is higher in “hERG current change (%, negative = inhibition) at 10uM” value: 6.42% for the first, 7.24% for the second.

First: CC(C)Nc1nc2n(c(=O)n1)CCN2C(C)C
Second: CCn1nnc(NC(=O)C(C)Oc2ccc(Cl)cc2Cl)n1 (stereo not shown)
The “hERG current change (%, negative = inhibition) at 10uM” value of the first is higher: 3.15% for the first, 2.78% for the second.

Going from `CCOC(=O)C1=C(C(C)=O)C(c2cccnc2)C(C#N)=C(N)O1` (stereo not shown) to `CCOC(=O)NCc1ccc2c(c1)cc(C)n2C`, the “hERG current change (%, negative = inhibition) at 10uM” value falls from 3.51% to -7.56%.

Going from `COc1ccc(C(C)(C)C)cc1NC(=O)COC(=O)c1cc(SC)ccc1Cl` to `CC(C)(OC(=O)c1ccc(C#N)cc1)c1cc2ccccc2c(=O)o1`, the “hERG current change (%, negative = inhibition) at 10uM” value falls from 6.91% to -73.1%.

Going from `O=C(O)CCc1nnc2n(Cc3ccc(F)cc3)c(=O)c3ccccc3n12` to `Cc1ccc(-c2nnc(Nc3ccc(CC(N)=O)cc3)c3ccccc23)cc1S(N)(=O)=O`, the “hERG current change (%, negative = inhibition) at 10uM” value rises from 6.3% to 6.75%.

Going from `CCc1ccc(N=C2NC(=O)/C(=C/c3cc(OC)c(O)c(OC)c3)S2)cc1` to `COc1cc(C2C3=C(CCCC3=O)Nc3c2c(C)nn3-c2cccc(C)c2)cc(OC)c1O` (stereo not shown), the “hERG current change (%, negative = inhibition) at 10uM” value falls from 14.2% to -0.666%.

Compared with `CC1CCCN(S(=O)(=O)c2ccc3c(c2)c(=O)nc2ccc(Cl)cn23)C1` (stereo not shown), `CCn1nc(C)cc1C(=O)N1CCCC(Nc2ccc(F)c(F)c2)C1` (stereo not shown) is higher in “hERG current change (%, negative = inhibition) at 10uM” value: -10.5% for the first, 7.74% for the second.

First: O=C(NN=C1CCC(=NNC(=O)c2cccnc2)CC1)c1cccnc1
Second: O=C(NC(=S)Nc1nc2c(s1)CCCC2)c1ccc(C(=O)c2ccccc2)cc1
The “hERG current change (%, negative = inhibition) at 10uM” value of the first is higher: 39.4% for the first, 18.8% for the second.

Compared with `CC(C)c1ccc(OCc2ccc(C(=O)O)o2)cc1`, `CCOc1ccc(-c2nnc(SCc3nc4ccccc4[nH]3)n2N)cc1` is lower in “hERG current change (%, negative = inhibition) at 10uM” value: -4.08% for the first, -34.3% for the second.

Going from `Cc1cc2c(OCC(O)CNC(C)(C)C)cccc2[nH]1` (stereo not shown) to `CCCn1nnc(NC(=O)c2cccc(Cl)c2)n1`, the “hERG current change (%, negative = inhibition) at 10uM” value rises from 11.6% to 13.1%.

Going from `CCN1CCN(CCC(=O)Nc2ccccc2)CC1` to `CC(CCc1ccccc1)NC(=O)CNC(=O)N1CC(=O)Nc2ccccc21` (stereo not shown), the “hERG current change (%, negative = inhibition) at 10uM” value falls from 8.58% to -2.77%.

Compared with `Cc1ccnc(-n2c(-c3ccco3)nc3ccccc3c2=O)c1`, `Cl.c1ccc(C2CNCCc3ccccc32)cc1` (stereo not shown) is lower in “hERG current change (%, negative = inhibition) at 10uM” value: -12.4% for the first, -33.6% for the second.

Going from `COc1cccc(CN2CC(C(=O)NC3CCC3)CCC2=O)c1` (stereo not shown) to `C=CCNC(=O)C1CCN(c2ccc(S(=O)(=O)N3CCOCC3)cc2[N+](=O)[O-])CC1`, the “hERG current change (%, negative = inhibition) at 10uM” value falls from 17.7% to -24%.

First: O=C(NNC(=O)c1ccc[nH]1)c1cccc(C(F)(F)F)c1
Second: CCOc1cc(S(=O)(=O)NCCCn2ccnc2)ccc1Cl
The “hERG current change (%, negative = inhibition) at 10uM” value of the first is higher: 30.7% for the first, -64% for the second.

Source: paper PMC4336329 (PLoS ONE, 2015)
